# Measured values as given in the supplement of paper PMC8728848.
# The list shows a part of the results.
# Tests used:
# Assay in all cases: glycan array binding signal (z-score within array); higher = stronger binding
# Details in all cases: glycan notation: IUPAC condensed, linker removed
# [1] = target: Fuc(a1-2)Gal(b1-4)GlcNAc(b1-3)Gal(b1-4)GlcNAc(b1-3)Gal(b1-4)GlcNAc
# Summary of the method: (§1)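 The Consortium for Functional Glycomics database supplied 3228 glycan arrays, of which those lacking an available protein sequence were dropped. The binding signal, a within-array Z-score, was averaged across arrays of the same protein sequence and across linkers. Negative scores can be read as non-binding.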
# [2] = target: Fuc(a1-2)Gal(b1-4)GlcNAc(b1-3)GalNAc
# Summary of the method: as §1
# [3] = target: Fuc(a1-2)Gal(b1-4)GlcNAc(b1-3)[Fuc(a1-2)Gal(b1-4)GlcNAc(b1-6)]GalNAc
# Summary of the method: as §1
# [4] = target: Fuc(a1-2)Gal(b1-4)GlcNAc(b1-6)GalNAc
# Summary of the method: as §1
# [5] = target: Fuc(a1-2)Gal(b1-4)GlcNAc6S
# Summary of the method: as §1
# [6] = target: Fuc(a1-2)Gal(b1-4)[Fuc(a1-3)]GlcNAc
# Summary of the method: as §1
# [7] = target: Fuc(a1-2)Gal(b1-4)[Fuc(a1-3)]GlcNAc(b1-2)Man(a1-3)[Fuc(a1-2)Gal(b1-4)[Fuc(a1-3)]GlcNAc(b1-2)Man(a1-6)]Man(b1-4)GlcNAc(b1-4)GlcNAc
# Summary of the method: as §1
# [8] = target: Fuc(a1-2)Gal(b1-4)[Fuc(a1-3)]GlcNAc(b1-2)Man(a1-6)[Fuc(a1-2)Gal(b1-4)[Fuc(a1-3)]GlcNAc(b1-2)Man(a1-3)]Man(b1-4)GlcNAc(b1-4)[Fuc(a1-6)]GlcNAc
# Summary of the method: as §1
# [9] = target: Fuc(a1-2)Gal(b1-4)[Fuc(a1-3)]GlcNAc(b1-2)[Fuc(a1-2)Gal(b1-4)[Fuc(a1-3)]GlcNAc(b1-4)]Man(a1-3)[Fuc(a1-2)Gal(b1-4)[Fuc(a1-3)]GlcNAc(b1-2)Man(a1-6)]Man(b1-4)GlcNAc(b1-4)GlcNAc
# Summary of the method: as §1
# [10] = target: Fuc(a1-2)Gal(b1-4)[Fuc(a1-3)]GlcNAc(b1-3)Gal(b1-4)[Fuc(a1-3)]GlcNAc
# Summary of the method: as §1
# [11] = target: Fuc(a1-2)Gal(b1-4)[Fuc(a1-3)]GlcNAc(b1-3)Gal(b1-4)[Fuc(a1-3)]GlcNAc(b1-3)Gal(b1-4)[Fuc(a1-3)]GlcNAc
# Summary of the method: as §1
# [12] = target: Fuc(a1-2)Gal(b1-4)[Fuc(a1-3)]GlcNAc(b1-3)GalNAc
# Summary of the method: as §1
# [13] = target: Fuc(a1-2)Gal(b1-4)[Fuc(a1-3)]GlcNAc(b1-3)[Neu5Ac(a2-6)Gal(b1-4)GlcNAc(b1-6)]Gal(b1-4)Glc
# Summary of the method: as §1
# [14] = target: Fuc(a1-2)Gal6S(b1-3)GlcNAc
# Summary of the method: as §1
# [15] = target: Fuc(a1-2)Gal6S(b1-3)GlcNAc6S
# Summary of the method: as §1
# Fuc(a1-2)Gal6S(b1-4)Glc = target: Fuc(a1-2)Gal6S(b1-4)Glc
# Summary of the method: as §1
# [16] = target: Fuc(a1-2)Gal6S(b1-4)Glc6S
# Summary of the method: as §1
# [17] = target: Fuc(a1-2)Gal6S(b1-4)GlcNAc
# Summary of the method: as §1
# Fuc(a1-2)[Gal(a1-3)]Gal = target: Fuc(a1-2)[Gal(a1-3)]Gal
# Summary of the method: as §1
# [18] = target: Fuc(a1-2)[Gal(a1-3)]Gal(b1-3)GalNAc
# Summary of the method: as §1
# [19] = target: Fuc(a1-2)[Gal(a1-3)]Gal(b1-3)GlcNAc
# Summary of the method: as §1
# [20] = target: Fuc(a1-2)[Gal(a1-3)]Gal(b1-3)GlcNAc(b1-2)Man(a1-3)[Fuc(a1-2)[Gal(a1-3)]Gal(b1-3)GlcNAc(b1-2)Man(a1-6)]Man(b1-4)GlcNAc(b1-4)GlcNAc
# Summary of the method: as §1
# [21] = target: Fuc(a1-2)[Gal(a1-3)]Gal(b1-3)GlcNAc(b1-2)Man(a1-3)[Fuc(a1-2)[Gal(a1-3)]Gal(b1-3)GlcNAc(b1-2)Man(a1-6)]Man(b1-4)GlcNAc(b1-4)[Fuc(a1-6)]GlcNAc
# Summary of the method: as §1
# [22] = target: Fuc(a1-2)[Gal(a1-3)]Gal(b1-3)GlcNAc(b1-3)GalNAc
# Summary of the method: as §1
# [23] = target: Fuc(a1-2)[Gal(a1-3)]Gal(b1-4)Glc
# Summary of the method: as §1
# [24] = target: Fuc(a1-2)[Gal(a1-3)]Gal(b1-4)GlcNAc
# Summary of the method: as §1
# [25] = target: Fuc(a1-2)[Gal(a1-3)]Gal(b1-4)GlcNAc(b1-2)Man(a1-3)[Fuc(a1-2)[Gal(a1-3)]Gal(b1-4)GlcNAc(b1-2)Man(a1-6)]Man(b1-4)GlcNAc(b1-4)GlcNAc
# Summary of the method: as §1
# [26] = target: Fuc(a1-2)[Gal(a1-3)]Gal(b1-4)GlcNAc(b1-2)Man(a1-3)[Fuc(a1-2)[Gal(a1-3)]Gal(b1-4)GlcNAc(b1-2)Man(a1-6)]Man(b1-4)GlcNAc(b1-4)[Fuc(a1-6)]GlcNAc
# Summary of the method: as §1
# [27] = target: Fuc(a1-2)[Gal(a1-3)]Gal(b1-4)GlcNAc(b1-3)GalNAc
# Summary of the method: as §1
# [28] = target: Fuc(a1-2)[Gal(a1-3)]Gal(b1-4)GlcNAc(b1-6)GalNAc
# Summary of the method: as §1
# [29] = target: Fuc(a1-2)[Gal(a1-3)]Gal(b1-4)[Fuc(a1-3)]Glc
# Summary of the method: as §1
# [30] = target: Fuc(a1-2)[Gal(a1-3)]Gal(b1-4)[Fuc(a1-3)]GlcNAc
# Summary of the method: as §1
# [31] = target: Fuc(a1-2)[Gal(a1-3)]Gal(b1-4)[Fuc(a1-3)]GlcNAc(b1-3)GalNAc
# Summary of the method: as §1
# [32] = target: Fuc(a1-2)[Gal(a1-4)]Gal(b1-4)GlcNAc
# Summary of the method: as §1
# [33] = target: Fuc(a1-2)[GalNAc(a1-3)]Gal
# Summary of the method: as §1
# [34] = target: Fuc(a1-2)[GalNAc(a1-3)]Gal(b1-3)GalNAc(a1-3)[Fuc(a1-2)]Gal(b1-4)GlcNAc
# Summary of the method: as §1
# [35] = target: Fuc(a1-2)[GalNAc(a1-3)]Gal(b1-3)GlcNAc
# Summary of the method: as §1
binder,measurement,setting,value
"ArathEULS3 (Arabidopsis thaliana), Q945P1 (protein) MEHHHQHHRHHQRDDGEDDRQSFGVPPPHVDAPPQPHGLYQSQPHFDPYAPTPQAPAPYRSETQFEPHAPPPYRSEPYFETPAPPPSFGHVSHVGHQSPNESYPPEHHRYGGYQQPSNSLLESHGDHSGVTHVAHHSSNQPQSSSGVYHKPDENRLPDNLAGLAGRATVKVYSKAEPNYNLTIRDGKVILAPADPSDEAQHWYKDEKYSTKVKDADGHPCFALVNKATGEAMKHSVGATHPVHLIRYVPDKLDESVLWTESKDFGDGYRTIRMVNNTRLNVDAYHGDSKSGGVRDGTTIVLWDWNKGDNQLWKIFPFILEQKLISEEDLNSAVDHHHHHH",glycan array binding signal (z-score),[1],-0.257
same,glycan array binding signal (z-score),[2],-0.325
same,glycan array binding signal (z-score),[3],-0.164
same,glycan array binding signal (z-score),[4],-0.126
same,glycan array binding signal (z-score),[5],-0.196
same,glycan array binding signal (z-score),[6],0.658
same,glycan array binding signal (z-score),[7],1.64
same,glycan array binding signal (z-score),[8],1.72
same,glycan array binding signal (z-score),[9],-0.214
same,glycan array binding signal (z-score),[10],-0.224
same,glycan array binding signal (z-score),[11],-0.339
same,glycan array binding signal (z-score),[12],11.8
same,glycan array binding signal (z-score),[13],-0.099
same,glycan array binding signal (z-score),[14],-0.322
same,glycan array binding signal (z-score),[15],0.585
same,glycan array binding signal (z-score),Fuc(a1-2)Gal6S(b1-4)Glc,0.231
same,glycan array binding signal (z-score),[16],0.153
same,glycan array binding signal (z-score),[17],0.038
same,glycan array binding signal (z-score),Fuc(a1-2)[Gal(a1-3)]Gal,-0.303
same,glycan array binding signal (z-score),[18],0.515
same,glycan array binding signal (z-score),[19],-0.064
same,glycan array binding signal (z-score),[20],-0.243
same,glycan array binding signal (z-score),[21],-0.019
same,glycan array binding signal (z-score),[22],-0.241
same,glycan array binding signal (z-score),[23],0.023
same,glycan array binding signal (z-score),[24],-0.145
same,glycan array binding signal (z-score),[25],-0.125
same,glycan array binding signal (z-score),[26],-0.169
same,glycan array binding signal (z-score),[27],0.002
same,glycan array binding signal (z-score),[28],-0.175
same,glycan array binding signal (z-score),[29],-0.245
same,glycan array binding signal (z-score),[30],0.315
same,glycan array binding signal (z-score),[31],0.112
same,glycan array binding signal (z-score),[32],-0.393
same,glycan array binding signal (z-score),[33],-0.24
same,glycan array binding signal (z-score),[34],-0.309
same,glycan array binding signal (z-score),[35],0.163
